{"source": "paper PMC4336329", "about": "(PLoS ONE, 2015)", "note": "The campaign covered roughly 310,000 compounds. About 14,000 (4.5%) showed an effect of 50% or more. The effect is printed as a negative number. This is one part of the list. Where a SMILES comes first, the peptide text is derived from it. [ ]: non-standard residue; d: D form. The star is where a group is joined. ξ: configuration not given here. ξF = NC(Cc1ccccc1)C(=O)O; Cbz = O=C(OCc1ccccc1)*;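 note: peak tail current of the secondary pulse compared with the same well before compound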", "data": [{"molecular_target": "human ether-à-go-go-related gene (hERG) potassium channel (human, UniProt Q12809)", "sequence (Q12809 whole entry, looked up)": "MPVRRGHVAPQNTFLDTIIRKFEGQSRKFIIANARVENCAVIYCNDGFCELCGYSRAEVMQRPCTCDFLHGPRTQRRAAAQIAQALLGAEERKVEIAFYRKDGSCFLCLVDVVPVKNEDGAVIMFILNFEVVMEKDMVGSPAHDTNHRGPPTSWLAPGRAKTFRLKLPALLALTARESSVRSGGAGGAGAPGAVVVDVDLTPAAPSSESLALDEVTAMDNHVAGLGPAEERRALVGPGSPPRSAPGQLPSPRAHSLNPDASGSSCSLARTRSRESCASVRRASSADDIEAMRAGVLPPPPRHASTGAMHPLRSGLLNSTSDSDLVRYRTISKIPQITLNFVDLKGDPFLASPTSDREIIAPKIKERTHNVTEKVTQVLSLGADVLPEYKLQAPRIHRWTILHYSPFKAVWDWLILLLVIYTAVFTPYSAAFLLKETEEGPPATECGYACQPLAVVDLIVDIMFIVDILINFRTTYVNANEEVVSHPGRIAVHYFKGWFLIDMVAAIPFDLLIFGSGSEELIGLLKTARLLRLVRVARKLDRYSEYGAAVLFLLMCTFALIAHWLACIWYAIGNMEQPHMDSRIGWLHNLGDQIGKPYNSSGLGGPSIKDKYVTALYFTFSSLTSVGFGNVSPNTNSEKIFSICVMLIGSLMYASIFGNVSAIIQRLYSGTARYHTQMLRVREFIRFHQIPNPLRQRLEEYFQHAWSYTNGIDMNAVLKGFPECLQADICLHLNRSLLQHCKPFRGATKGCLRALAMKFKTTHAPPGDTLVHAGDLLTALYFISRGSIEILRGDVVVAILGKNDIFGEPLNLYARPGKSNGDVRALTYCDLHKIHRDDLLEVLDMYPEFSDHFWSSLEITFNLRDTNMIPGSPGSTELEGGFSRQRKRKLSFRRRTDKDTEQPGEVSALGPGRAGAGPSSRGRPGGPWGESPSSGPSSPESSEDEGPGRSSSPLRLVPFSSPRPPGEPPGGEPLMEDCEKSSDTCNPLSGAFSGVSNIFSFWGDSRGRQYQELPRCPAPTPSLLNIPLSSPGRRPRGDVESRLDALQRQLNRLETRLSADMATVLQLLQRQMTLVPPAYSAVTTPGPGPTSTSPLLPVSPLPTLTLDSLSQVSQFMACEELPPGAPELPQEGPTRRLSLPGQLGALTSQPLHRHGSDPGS", "test": "primary screen, population patch clamp on CHO cells stably expressing hERG", "units": {"hERG current change (%, negative = inhibition) at 10uM": "%"}, "values": [{"compound": "CC1(C)CCC(=O)N2CC[C@H]3C[C@H](OC(=O)Nc4ccccc4)C[C@@H]1[C@H]32", "hERG current change (%, negative = inhibition) at 10uM": -11.9}, {"compound": "O=C(Nc1ccc(F)cc1)Nc1ccc([N+](=O)[O-])cn1", "hERG current change (%, negative = inhibition) at 10uM": 13.5}, {"compound": "CC(C)n1nccc1NC(=O)Nc1ccccc1", "hERG current change (%, negative = inhibition) at 10uM": 23.7}, {"compound": "O=C(C1CCCN(Cc2ccccc2F)C1)N1CCCCC1.O=C(O)C(=O)O", "note": "(centres unmarked)", "hERG current change (%, negative = inhibition) at 10uM": 8.62}, {"compound": "C=C1CSc2nc(=O)c3c4c(sc3n21)CCCC4", "hERG current change (%, negative = inhibition) at 10uM": -35}, {"compound": "CCOC(=O)C1CCCN(S(=O)(=O)c2ccc(S(=O)(=O)N(CC)CC)cc2)C1", "note": "(centres unmarked)", "hERG current change (%, negative = inhibition) at 10uM": -30.4}, {"compound": "Cc1cccc(CS(=O)(=O)Cc2ccc(C(=O)NCc3cccnc3)o2)c1", "hERG current change (%, negative = inhibition) at 10uM": -3.42}, {"compound": "CC1(C)CC(=O)C2=C(C1)Oc1nc3ccccc3cc1C2C(C#N)C#N", "note": "(centres unmarked)", "hERG current change (%, negative = inhibition) at 10uM": 15.1}, {"compound": "COc1cccc(C(C2=C(O)CC(C)(C)CC2=O)C2C(=O)CC(C)(C)CC2=O)c1", "note": "(centres unmarked)", "hERG current change (%, negative = inhibition) at 10uM": 15.3}, {"compound": "CC(C)N(C(=O)Cn1c(-c2cccnc2)ccc(C#N)c1=O)C(C)C", "hERG current change (%, negative = inhibition) at 10uM": 6.41}, {"compound": "Cc1ccc(NC(=O)C2CCCN2C(=O)NC2CCCCC2)cc1F", "note": "(centres unmarked)", "hERG current change (%, negative = inhibition) at 10uM": 1.22}, {"compound": "Cc1ccc2nc(CSc3nnc(Nc4ccccc4F)s3)cc(=O)n2c1", "hERG current change (%, negative = inhibition) at 10uM": -31.6}, {"compound": "NC(=O)C1(N2CCCCC2)CCN(S(=O)(=O)c2ccc(Cl)s2)CC1", "hERG current change (%, negative = inhibition) at 10uM": -42.2}, {"compound": "Cc1cc(C(=O)CSc2nnc(C3COc4ccccc4O3)n2C)c(C)n1-c1ccc(F)cc1", "note": "(centres unmarked)", "hERG current change (%, negative = inhibition) at 10uM": -4.9}, {"compound": "O=C(Cc1ccccc1F)Nc1cccc2cccnc12", "hERG current change (%, negative = inhibition) at 10uM": -9.77}, {"compound": "CCc1nc(SCC(=O)c2cccs2)c2oc3ccccc3c2n1", "hERG current change (%, negative = inhibition) at 10uM": 22.7}, {"compound": "CCn1c(O)c(N=Nc2ccc(S(=O)(=O)N3CCOCC3)cc2)c(=O)n(CC)c1=S", "hERG current change (%, negative = inhibition) at 10uM": -2.36}, {"compound": "Cn1cccc1/C=N/n1c(-c2ccc(Cl)cc2Cl)n[nH]c1=S", "hERG current change (%, negative = inhibition) at 10uM": 1.87}, {"compound": "Cc1onc(-c2c(Cl)cccc2Cl)c1C(=O)N1CCN(c2ncccn2)CC1", "hERG current change (%, negative = inhibition) at 10uM": -3.56}, {"compound": "C=CCn1c(CCCNC(=O)CCC)nc2ccccc21", "hERG current change (%, negative = inhibition) at 10uM": -4.6}, {"compound": "CCCC(=O)N1CCN(c2nnc(-c3ccccc3)c3ccccc23)CC1", "hERG current change (%, negative = inhibition) at 10uM": -45.4}, {"compound": "CCSc1nnc(NC(=O)c2nn(C(C)C)c(=O)c3ccccc23)s1", "hERG current change (%, negative = inhibition) at 10uM": -24.7}, {"compound": "Cc1ccc(-c2csc3nc(C)n(-n4cccc4)c(=O)c23)o1", "hERG current change (%, negative = inhibition) at 10uM": -7.17}, {"compound": "COc1ccc(N(CC(=O)Nc2cc(OC)ccc2OC)S(=O)(=O)c2c(C)noc2C)cc1", "hERG current change (%, negative = inhibition) at 10uM": 3.98}, {"compound": "Cc1ccc(S(=O)(=O)N2CCN(C(=O)c3ccc(Cl)nc3)CC2)cc1", "hERG current change (%, negative = inhibition) at 10uM": 2.73}, {"compound": "Cc1ccc(SC2=C(C(=O)O)CCCC2)cc1", "hERG current change (%, negative = inhibition) at 10uM": 4.25}, {"compound": "O=C1C2C3C=CC(C3)C2C(=O)N1/N=C/c1cc(Br)cc([N+](=O)[O-])c1O", "note": "(centres unmarked)", "hERG current change (%, negative = inhibition) at 10uM": -1.76}, {"compound": "COc1ccc(NC(=S)NNC(=O)c2ccccc2OC(F)F)cc1", "hERG current change (%, negative = inhibition) at 10uM": -2.29}, {"compound": "CC1(C)CC(=O)c2sc(N3CCCCC3)nc2C1", "hERG current change (%, negative = inhibition) at 10uM": -2.83}, {"compound": "COc1ccccc1-c1cc(C(=O)NC(C)C)no1", "hERG current change (%, negative = inhibition) at 10uM": -8.87}, {"compound": "CCCCCN(C(=O)CCC(=O)OCC(=O)N(CC#N)c1ccccc1)c1c(N)n(CCCC)c(=O)[nH]c1=O", "hERG current change (%, negative = inhibition) at 10uM": -0.196}, {"compound": "COc1cccc(-c2nc(CS(=O)CC(=O)NCCc3ccc(C)cc3)c(C)o2)c1", "note": "(centres unmarked)", "hERG current change (%, negative = inhibition) at 10uM": 7.55}, {"compound": "Cc1ccc(OCCc2csc(N)n2)cc1", "hERG current change (%, negative = inhibition) at 10uM": 20.5}, {"compound": "COC(=O)c1ccc(COc2ccc(/C=N/O)cc2)o1", "hERG current change (%, negative = inhibition) at 10uM": -11.1}, {"compound": "CCn1c(SCC(=O)Nc2nc3c(s2)CCCC3)nnc1-c1ccccc1", "hERG current change (%, negative = inhibition) at 10uM": -56.2}, {"compound": "Cc1cccc(NC(=O)c2ccc(CN3CCN(Cc4ccccc4)CC3)cc2)c1", "hERG current change (%, negative = inhibition) at 10uM": -80.3}, {"compound": "Cn1c(=O)cc(Cl)[nH]c1=O", "hERG current change (%, negative = inhibition) at 10uM": 24.3}, {"compound": "CCn1c(SCC(=O)NCc2ccco2)nnc1-c1c[nH]c2ccccc12", "hERG current change (%, negative = inhibition) at 10uM": 6.17}, {"compound": "C=CCn1c(-c2oc3nc(-c4ccccc4)cc(-c4ccccc4)c3c2N)n[nH]c1=S", "hERG current change (%, negative = inhibition) at 10uM": -2.49}, {"compound": "COc1ccc(NC(=O)Cc2nnc(SCC(=O)NC3=NCCS3)n2C)cc1", "hERG current change (%, negative = inhibition) at 10uM": -7}, {"compound": "CC1(C)Cc2ccccc2-c2nnc(SCC(=O)N3CCc4ccccc43)n21", "hERG current change (%, negative = inhibition) at 10uM": 5.65}, {"compound": "O=C(CCc1ccccc1)Nc1ccc2c(c1)OCO2", "hERG current change (%, negative = inhibition) at 10uM": 19.3}, {"compound": "Cc1ccc(CN(C)C(=O)COC(=O)CSc2cc(C)c3ccccc3n2)cc1", "hERG current change (%, negative = inhibition) at 10uM": 9.84}, {"compound": "CC12CCC(C/C1=N\\N=C1\\NC(=O)/C(=C\\c3cccc(Br)c3)S1)C2(C)C", "note": "(centres unmarked)", "hERG current change (%, negative = inhibition) at 10uM": 12.3}, {"compound": "C[N+]1(C)[C@@H]2CC[C@H]1CC(OC(=O)C(CO)c1ccccc1)C2.O=[N+]([O-])[O-]", "note": "(some centres unmarked)", "hERG current change (%, negative = inhibition) at 10uM": 13.4}, {"compound": "O=Cc1c(NCc2ccccc2)c2ccccc2[nH]c1=O", "hERG current change (%, negative = inhibition) at 10uM": 10}, {"compound": "O=C(O)CNC(=O)C(Cc1ccccc1)NC(=O)OCc1ccccc1", "note": "(centres unmarked) (Cbz-[ξF]-Gly-OH)", "hERG current change (%, negative = inhibition) at 10uM": 16.3}, {"compound": "CC(C)N(C(=O)Cn1cnc2cc([N+](=O)[O-])ccc2c1=O)C(C)C", "hERG current change (%, negative = inhibition) at 10uM": 7.76}, {"compound": "CCOc1cc(N2CCOCC2)c(OCC)cc1NS(=O)(=O)c1cc(NC(C)=O)ccc1OC", "hERG current change (%, negative = inhibition) at 10uM": 2.07}, {"compound": "O=C(Nc1ccccc1-c1nc2ccccc2s1)C1=COCCO1", "hERG current change (%, negative = inhibition) at 10uM": 0.377}, {"compound": "CCC(C(=O)NC1CCCCC1)n1c2ccccc2c2nc(=O)cc(C)n21", "note": "(centres unmarked)", "hERG current change (%, negative = inhibition) at 10uM": 10.4}, {"compound": "COc1ccc(CNC(=O)CSc2nc3cccnc3s2)cc1", "hERG current change (%, negative = inhibition) at 10uM": -8.21}, {"compound": "CCc1cc(=O)oc2cc(C)cc(OCC(=O)NCC(O)c3ccccc3)c12", "note": "(centres unmarked)", "hERG current change (%, negative = inhibition) at 10uM": -1.76}, {"compound": "O=C(c1n[nH]c(=O)c2ccccc12)N1CCN(S(=O)(=O)c2ccccc2Cl)CC1", "hERG current change (%, negative = inhibition) at 10uM": -19.9}, {"compound": "COc1ccc(OC(=O)c2cnn(-c3ccccc3)c2C)cc1", "hERG current change (%, negative = inhibition) at 10uM": 17.3}, {"compound": "O=C(CCSc1ccccc1)N1CCN(C(=O)c2ccco2)CC1", "hERG current change (%, negative = inhibition) at 10uM": -23.6}]}]}
